Laboratory results as given in PubChem BioAssay AID652104 (National Center for Advancing Translational Sciences (NCATS), 2013).
Hit rate of the full screen: of about 410,000 compounds, about 7,200 (1.8%) were called active. This list was built around the results that the source calls inconclusive (neither active nor inactive); the mix of calls is not that of the screen. Calls follow the shape of the dose curve; as a rule, active = well fitted activation curve with a large enough effect; inconclusive = small, poorly fitted or top-dose-only effect, or another doubt; inactive = no such curve, though single readings can be large or run the other way. A potency beside an inconclusive call is a rough fit, not a confirmed value.

experiment: qHTS of TDP-43 Inhibitors; conditions: TDP-43 expressing yeast growth rescue, BacTiter-Glo, 24 h; growth rescue (activation): at 46.1 µM (top of the series) unless noted; also: nearly all actives have a fitted effect of over 50% in size; as to growth rescue (activation): % of control where 0% means no effect
Summary of the method: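 Galactose-induced TDP-43 yeast, OD600=0.02, compound pinned; 24 hr, 30 deg C; BacTiter-Glo luminescence for growth. Inhibitors of TDP-43 toxicity read as activators.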
Potency is read from the fitted curve at half-maximal effect; tags tell the direction and shape of the fitted curve.

Growth rescue (activation), inactive:
COc1ccc(NC(=O)c2cc(-c3ccccc3)nc3c2cnn3C(C)C)cc1 -0.27%
COc1ccc(NC(=O)NC2COc3ccccc3C2)c(OC)c1 (centres undefined) 9.16%
CC(=O)N1CCC(C(=O)N2c3ccccc3N=C(c3ccc4c(c3)OCO4)C2C(=O)Nc2c(C)cccc2C)CC1 (centres undefined) 23.8%
Cc1cc(N2CCN(C)CC2)nc2ccc(NC(=O)Nc3ccccc3Br)cc12 19.1%
CC(C)C(=O)Nc1ccc(C(=O)N/N=C/C2CC3C=CC2C3)cc1 (centres undefined) -3.87% [at 9.22 µM]

Potency, active:
C#Cc1cc(N2CCN(C(=O)c3ccoc3)CC2)n2nc(-c3cccc(Cl)c3)cc2n1 22.4 µM
O=C(NC(=S)NCc1ccccc1)c1cccc(Cl)c1 15.8 µM

Potency, inconclusive:
CC/C(=N\NC(=S)Nc1ccc(OC)cc1)c1ccc(OC(F)F)cc1 15.8 µM [activator, single point]
Clc1nccnc1N/N=C/c1ccc(Br)cc1 22.4 µM [activator, partial curve]
O=C1/C(=C\c2ccc(O)cc2)CCC1CNc1ccc(Cl)cc1 (centres undefined) 4.47 µM [activator, partial curve]
Cc1cccc(C)c1NC(=O)C1C(c2ccc3c(c2)OCO3)=Nc2ccccc2N1C(=O)c1ccccc1 (centres undefined) 31.6 µM [activator, partial curve]
CCOc1ccccc1C(=O)N1CCN(c2cccc(Cl)c2)CC1 17.8 µM [activator, single point]
O=C(COc1ccc2ccc(=O)oc2c1)N1CCN(c2ccc(F)cc2)CC1 14.1 µM [activator, partial curve]
Clc1ccccc1/C=C/c1ccnc2ccccc12 22.4 µM [activator, single point]
COc1cc2c(cc1OC)CN(C(=S)Nc1ccc(C)cc1C)CC2 20 µM [activator, partial curve]
COc1ccc(NC(=O)c2cc(C3CCCCN3C(=O)c3ccccc3)on2)c(C)c1 (centres undefined) 31.6 µM [activator, partial curve, poor fit]
COc1ccc(NC(=O)COC(=O)C23CCC(=O)N2c2ccccc2S3)cc1 (centres undefined) 10 µM [activator, partial curve]
O=S(=O)(NCC(c1ccco1)S(=O)(=O)c1ccccc1)c1ccccc1 (centres undefined) 0.562 µM [activator, full curve, poor fit]
CCCc1cc(C(=O)Nc2cccc3ccccc23)n(C)n1 14.1 µM [activator, single point]
